PubChem BioAssay AID504832 (National Center for Advancing Translational Sciences (NCATS), 2011)
About 18,000 (5.8%) of roughly 310,000 compounds were called active. The inconclusive results got no clear call from the source; some entries with a clear call stand among them for comparison. Calls follow the shape of the dose curve; as a rule, active = well fitted inhibition curve with a large enough effect; inconclusive = small, poorly fitted or top-dose-only effect, or another doubt; inactive = no such curve, though single readings can be large or run the other way. Potencies of inconclusive entries are left out as doubtful fits.
% is scaled to controls: 0 for no effect and ±100 for the full control effect; potency is read from the fitted curve at half-maximal effect; tags tell the direction and shape of the fitted curve.

Assay: Primary qHTS for delayed death inhibitors of the malarial parasite plastid, 48 hour incubation
Settings: P. falciparum luciferase growth in erythrocytes; series mostly up to 28.7 µM; activity change, negative = inhibition: at the top concentration
Method in brief: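 Luciferase-expressing parasites in RBCs, 2% Hct / 0.1% parasitemia final; RPMI 1640 + 0.5% Albumax; 37 C, 5% CO2, one generation; luminescence read-out, lower signal = inhibition.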
In the case of `CCO[C@@H]1OC(C(=O)N2CCN(Cc3ccccc3)CC2)=C[C@H](c2ccc(Br)cc2)[C@H]1CCCO`, the Potency is reported as inconclusive [inhibitor, full curve].
In the case of `O=[N+]([O-])c1ccc(N2CCN(C(=S)Nc3ccccc3)CC2)cc1`, the Potency is reported as active: 2.08 µM.
With `COc1cccc(NC(=O)COc2ncnc3sc(C)c(C)c23)c1` the “activity change, negative = inhibition” value was inactive: 17.7%.
For `CN(C(=O)c1ccc(NC(=O)Cc2cccc(NC(=O)C3CCCN(C(=O)C4CCC4)C3)c2)cc1)C1CCCC1` (stereo unspecified), the Potency was active: 11.7 µM.
With `Cc1cccn2c(=O)c(/C=C(\C#N)C(=O)NCc3ccco3)c(N3CCCC(C)C3)nc12` (stereo unspecified) the Potency was inconclusive [inhibitor, single point].
For `COc1ccccc1NC(=O)CN1CCN(CC(=O)Nc2ccc(OCc3ccccc3)cc2)CC1`, the Potency was inconclusive [inhibitor, partial curve, poor fit].
With `CCN(CC)C(=O)COc1cc(C)cc2oc(=O)cc(-c3ccccc3)c12` the Potency was inconclusive [inhibitor, partial curve, poor fit].
With `Cc1nc2ccccc2c(=O)n1-c1cccc(NS(=O)(=O)c2ccccc2)c1` the Potency was inconclusive [inhibitor, single point].
With `O=C(Nc1ccc(Cl)cc1Cl)c1ccc(-c2ccccc2)cc1` the “activity change, negative = inhibition” value was inactive: 8.87%.
In the case of `COc1ccc(OC)c(NC(=O)c2cc(S(=O)(=O)NCc3ccco3)ccc2F)c1`, the “activity change, negative = inhibition” value is reported as inactive: 0%.
With `COc1ccccc1N(C)S(=O)(=O)c1ccc(C(=O)OC(C)C(=O)NCc2ccc3c(c2)OCO3)cc1` (stereo unspecified) the Potency was inconclusive [inhibitor, single point].
For `O=C(CSc1nc2c(c(=O)n1-c1ccccc1)SCC2)NCC1CCCO1` (stereo unspecified), the “activity change, negative = inhibition” value was inactive: -5%.
For `O=C(Nc1ccc(-c2nc3ccc(NC(=O)c4cccs4)cc3[nH]2)cc1)c1cccs1`, the Potency was active: 2.62 µM.
With `O=S(=O)(Nc1ccc(-c2ccc3nncn3n2)cc1)c1cccs1` the “activity change, negative = inhibition” value was inactive: 27%.
With `CC(Oc1ccc(F)cc1)c1ccnc2nc(/N=C/N(C)C)nn12` (stereo unspecified) the Potency was inconclusive [inhibitor, partial curve, poor fit].
In the case of `CC(=O)Nc1sc(N/N=C/c2ccc(O)cc2)nc1-c1ccc(C)cc1`, the Potency is reported as inconclusive [inhibitor, single point].
For `Cc1cc(C)cc(-n2ncc3c2CCCC3NC(=O)C2(C(N)=O)CC2)c1` (stereo unspecified), the “activity change, negative = inhibition” value was inactive: 1.72%.
In the case of `CN(C)c1ccc(NC(=O)c2sc(SCC(=O)Nc3ccc(Br)cc3)nc2N)cc1`, the “activity change, negative = inhibition” value is reported as inactive: 37.1%.
In the case of `Cc1ccnc(NC(=O)c2c(-c3ccccc3Cl)noc2C)c1`, the “activity change, negative = inhibition” value is reported as inactive: 44.2%.
With `CCCC(=O)Nc1ccccc1N1CCN(C(=O)c2ccccc2)CC1` the Potency was inconclusive [inhibitor, partial curve, poor fit].
In the case of `Cc1ccc(OCCn2c3ccccc3n3nc(C)c(=O)nc23)cc1`, the Potency is reported as inconclusive [inhibitor, single point].
In the case of `CCn1cnc2cc([N+](=O)[O-])ccc21`, the Potency is reported as inconclusive [inhibitor, full curve, poor fit].
For `Cc1cc(N(C)N)nc(NC(=O)NS(=O)(=O)c2ccccc2Cl)n1`, the “activity change, negative = inhibition” value was inactive: 10.5%.
For `Cc1sc(NC(=O)C2CSC3(C)CCC(=O)N23)nc1-c1ccccc1` (stereo unspecified), the Potency was inconclusive [inhibitor, single point].
In the case of `Cc1ccc2n(n1)c(=O)c(Cc1ccccc1)c([O-])[n+]2-c1ccccc1`, the “activity change, negative = inhibition” value is reported as inactive: -2.79%.
In the case of `Cn1c(=O)c2c(-c3ccccc3)n(CCCN3CCOCC3)cc2n(C)c1=O`, the “activity change, negative = inhibition” value is reported as inactive: -20%.
For `OC(COCC1COc2ccccc2O1)CN1CCc2ccccc2C1` (stereo unspecified), the “activity change, negative = inhibition” value was inactive: 40.6%.
For `Cn1nc(C(F)(F)F)c(C(=O)Nc2cccc(C(F)(F)F)c2)c1SCc1ccc(Cl)cc1`, the Potency was active: 1.85 µM.
For `Cn1c(SCc2ccc(F)cc2Cl)nc2ccccc2c1=O`, the Potency was inconclusive [inhibitor, single point].
For `CC(C)c1csc(CN2CCC(CO)(Cc3cccc(F)c3)CC2)n1`, the Potency was inconclusive [inhibitor, single point].
With `CN(c1ccccc1)c1nc(N)c([N+](=O)[O-])c(N2CCOCC2)n1` the “activity change, negative = inhibition” value was inactive: 39.9%.
In the case of `COc1ccc(N/C=C/C(=O)c2ccc3c(c2)OCO3)cc1OC`, the “activity change, negative = inhibition” value is reported as inactive: 60.9%.
With `CCC(Oc1ccccc1)C(=O)Nc1cc(C(F)(F)F)ccc1N1CCOCC1` (stereo unspecified) the Potency was active: 1.65 µM.
With `O=C1c2ccccc2C(=O)N1c1ccc(Cc2ccncc2)cc1` the “activity change, negative = inhibition” value was inactive: 26.6%.
In the case of `COc1ccc(N(C(=O)c2cnccn2)C(C(=O)NC2CCCCC2)c2ccccc2)cc1` (stereo unspecified), the “activity change, negative = inhibition” value is reported as inactive: -16.3%.
For `COc1cccc(NC(=O)NCCC2=CCCCC2)c1`, the “activity change, negative = inhibition” value was inactive: 33.6%.
For `Cn1ccnc1SCC(=O)c1ccc(C#N)cc1`, the “activity change, negative = inhibition” value was inactive: 15.1%.
For `Cc1ccc2c(c1)-c1c(cnn1CC(=O)Nc1ccccc1N1CCN(C)CC1)CO2`, the Potency was active: 10.4 µM.
With `O=C(Nc1ccc(S(=O)(=O)N2CCCC2)cc1)C1CCN(S(=O)(=O)c2ccc(F)cc2)CC1` the Potency was active: 13.1 µM.
For `Cc1ccc(Cn2nnc3c(=O)[nH]c(C4CCCN(C(=O)Nc5ccc(F)cc5)C4)nc32)cc1` (stereo unspecified), the Potency was inconclusive [inhibitor, partial curve, poor fit].
In the case of `Cc1ccc2c(CSc3nnc(C4CC4)n3N)cc(=O)oc2c1C`, the Potency is reported as inconclusive [inhibitor, partial curve, poor fit].
With `O=C(NC1CCSc2ccccc21)c1ccccc1Br` (stereo unspecified) the “activity change, negative = inhibition” value was inactive: 28.7%.
With `COc1ccc(S(=O)(=O)NCCc2nnc3ccc(SCC(=O)Nc4cc(C)on4)nn23)cc1` the Potency was inconclusive [inhibitor, full curve, poor fit].
With `Cc1ccccc1-n1c(SCC(=O)N/N=C/c2sccc2C)nc2ccccc2c1=O` the Potency was inconclusive [inhibitor, partial curve].
For `CC(CCN1CCN=C1N(C)C)c1ccccc1` (stereo unspecified), the “activity change, negative = inhibition” value was inactive: -8.95%.
In the case of `O=c1c2ccccc2nc(SCc2nnc(-c3ccccc3Br)o2)n1-c1ccccc1`, the Potency is reported as inconclusive [inhibitor, single point].
For `Cc1cc(C(=O)COc2ccc(C#N)cc2)c(C)n1C1CC1`, the Potency was inconclusive [inhibitor, partial curve, poor fit].
With `NC(=O)C1CCN(CC(=O)Nc2ccccc2Sc2ccc(Cl)cc2)CC1` the Potency was inconclusive [inhibitor, partial curve, poor fit].
In the case of `CCOc1cc(C(=O)Nc2cc(OC)cc(OC)c2)ccc1OCC(=O)N1CCOCC1`, the Potency is reported as inconclusive [inhibitor, partial curve].
For `Cc1nc(SCC(=O)NCC2CCCO2)c2cc(-c3ccccc3)sc2n1` (stereo unspecified), the Potency was inconclusive [inhibitor, single point].
For `CCOc1ccc(-n2cnc3scc(-c4ccc(OC)c(OC)c4)c3c2=O)cc1`, the Potency was inconclusive [inhibitor, single point].
For `COc1ccccc1CN1CCN(C(c2ccccc2)c2ccccc2)CC1`, the Potency was active: 13.1 µM.
In the case of `O=C(Nc1ccccc1)c1ccc(F)c(S(=O)(=O)N2CCOCC2)c1`, the Potency is reported as inconclusive [inhibitor, single point].
For `COCCNC(=O)Cc1ccc(Br)cc1`, the Potency was inconclusive [inhibitor, full curve, poor fit].
For `COc1ccc(OC)c(-c2cc(C(=O)NCCCn3ccnc3)no2)c1`, the Potency was inconclusive [inhibitor, single point].
For `CCn1c(SCC(=O)Nc2cccc(F)c2)nc2c(c1=O)SC(C)C2` (stereo unspecified), the Potency was active: 4.15 µM.
In the case of `O=C(CSc1nc2ncccc2[nH]1)c1cccc([N+](=O)[O-])c1`, the Potency is reported as inconclusive [inhibitor, single point].
For `O=C(Nc1ccc2c(c1)nc1n2CCOC1)c1ccccc1`, the “activity change, negative = inhibition” value was inactive: 85.7%.
In the case of `COc1cccc(NC(=O)CSc2nc(C3CC3)nc3ccccc23)c1`, the Potency is reported as inconclusive [inhibitor, single point].
In the case of `Cc1ccc(N(CC(=O)NCCc2ccc(F)cc2)S(=O)(=O)c2ccc(Cl)c([N+](=O)[O-])c2)c(C)c1`, the Potency is reported as inconclusive [inhibitor, single point].
With `COc1ccc(CN2C(=O)c3cccnc3C2Nc2cc(Cl)ccc2OC)cc1` (stereo unspecified) the Potency was active: 5.22 µM.
In the case of `CCC(C)(C)n1nnnc1C(c1cccnc1)N1CCN(c2cccc(C(F)(F)F)c2)CC1` (stereo unspecified), the Potency is reported as active: 9.28 µM.
For `O=C(/C=C/c1ccco1)Nc1scc(-c2ccccc2)c1C(=O)O`, the Potency was inconclusive [inhibitor, partial curve].
With `C=CCc1ccc(OCC(O)CN2CCC(Cc3ccccc3)CC2)c(OC)c1` (stereo unspecified) the Potency was inconclusive [inhibitor, single point].
For `CC(=O)c1ccc(N2CCN(C(=O)/C=C/c3ccc(S(=O)(=O)N4CCOCC4)cc3)CC2)cc1`, the Potency was inconclusive [inhibitor, single point].
With `O=C(CSc1nc(O)c(Cc2ccccc2)c(=O)[nH]1)N1CCOCC1` the Potency was inconclusive [inhibitor, full curve].
In the case of `O=C1CNC(=S)N1CCOc1ccccc1`, the “activity change, negative = inhibition” value is reported as inactive: 84.5%.
In the case of `Cc1ccc(Sc2cnccc2C#N)cc1`, the Potency is reported as inconclusive [inhibitor, single point].
With `CCN(CC(=O)Nc1ccc(S(=O)(=O)N2CCCCC2)cc1)Cc1ccccc1` the Potency was inconclusive [inhibitor, single point].
With `COCn1c(=O)c2c(nc(SC3=NCCS3)n2Cc2ccccc2C)n(COC)c1=O` the Potency was inconclusive [inhibitor, partial curve, poor fit].
In the case of `COc1ccc(S(=O)(=O)N2CCCCC2)cc1NC(=O)Cc1cccc(C(F)(F)F)c1`, the Potency is reported as inconclusive [inhibitor, partial curve, poor fit].
